From ChEMBL document CHEMBL4888484, “Replenishing the malaria drug discovery pipeline: Screening and hit evaluation of the MMV Hit Generation Library 1 (HGL1) against asexual blood stage Plasmodium falciparum ,using a nano luciferase reporter read-out” (2022) come the findings set out here.

Among all 150,000 compounds or so, about 540 (0.36%) showed an effect of 50% or more. This is one part of the list.

This experiment relates to Plasmodium falciparum. As to the kind of experiment: Primary screen in NF54 nanoGlo assay, in single point, at 2uM, 72h; a lower Z score goes with more inhibition. It is filed as functional, Erythrocyte. To be noted: timepoint 72 hour.
As for `Nc1nc2cc(C(=O)N3CCO[C@H](c4ccccc4)C3)ccc2s1`, the % Inhibition (as a rule, the drop in the measured response relative to a control, in per cent) was determined as 0% and the Z score was -0.01.

As to `O=C(c1ccc(F)cc1)[C@H]1CCCN(C(=O)CCc2ccncc2)C1`, the “% Inhibition” value is given as -6% and the Z score came to 0.89.

For the molecule `O=S(=O)(NC[C@H]1O[C@@H](CO)[C@@H](O)[C@H]1N1CCOCC1)c1cccs1`, the “% Inhibition” value is reported as -10% and the Z score stood at 1.49.

For the molecule `Cc1nnsc1C(=O)N[C@H]1CC[C@H](Oc2cnccn2)CC1`, the “% Inhibition” value is listed as -9% and the Z score is given as 1.03.

`CN(C[C@H]1CCCOC1)S(=O)(=O)c1ccc(Br)cc1`: the “% Inhibition” value is 4% and the Z score is given as -0.86.

For `CC[C@H](NCC(=O)N1CCCC1)C(=O)OC`, the “% Inhibition” value is listed as -3% and the Z score worked out at 0.44.

In the case of `COc1cccc(CN2CCN3C(=O)c4ccccc4OCC[C@@H]4CC[C@@H](NC(=O)C5CCOCC5)[C@@H](CNC(=O)[C@@H]3C2)O4)c1`, the “% Inhibition” value is listed as -8% and the Z score was determined as 1.24.

Regarding `CCOc1cccc(-n2cc(-c3ccccc3)nc2NC(=O)CN(Cc2ccco2)C(=O)c2ccc(Cl)cc2Cl)c1`, the “% Inhibition” value is given as -4% and the Z score is given as 0.51.

As for `O=C(c1ccc2nc(-c3ccccc3)cn2c1)N1CCNCC1`, the “% Inhibition” value is listed as -9% and the Z score is 1.73.

Consider `CCNC1CC(C)S(=O)(=O)c2sc(S(N)(=O)=O)cc21` (stereo unspecified), for which the “% Inhibition” value came to 1% and the Z score is -0.11.

As to `COCCCNC(=O)Cn1nc(-n2c(C)ccc2C)c2c(C)cc(C)nc21`, the “% Inhibition” value is -9% and the Z score was 0.89.

Regarding `CCC[C@]1(c2ccccc2)NC(=O)N(Cc2cc(C)on2)C1=O`, the “% Inhibition” value is -3% and the Z score is reported as 0.38.

Consider `O=C(NC(CO)CO)c1cc(COc2ccc3ncccc3c2)on1`, for which the “% Inhibition” value is -9% and the Z score is given as 1.78.

With `O=C(NCc1nc(C2CCCCC2)cs1)c1ccc(S(=O)(=O)N2CCOCC2)cc1`, the “% Inhibition” value was -9% and the Z score is given as 1.47.

As to `COc1ccccc1N1CCN(C(=O)CN2C(C)CCC2C)CC1` (stereo unspecified), the “% Inhibition” value came to 1% and the Z score is listed as -0.15.

For `CC1CC(NC(=O)NC(CCO)C(C)(C)C)CC(C)O1` (stereo unspecified), the “% Inhibition” value was 5% and the Z score was -0.93.

With `Cc1noc(CCCNC(=O)COc2cc(Cl)cc(Cl)c2)n1`, the “% Inhibition” value is -8% and the Z score was 1.58.

Regarding `CCOC(=O)c1[nH]nc(NC(=O)C[C@H]2CCCO2)c1C`, the “% Inhibition” value was -13% and the Z score stood at 1.83.

Regarding `COc1ccc(C)cc1NC(=O)CN1C(=O)[C@H]2CCCC2=Nc2ccccc21`, the “% Inhibition” value was -5% and the Z score came out at 0.56.

In the case of `COc1cc(=O)n(-c2ccccc2)cc1C(=O)N1CC(Nc2ncccn2)C1`, the “% Inhibition” value was -6% and the Z score came to 0.93.

As to `O=C(Cn1cn[nH]c1=O)NC1CCC2(CCOCC2)CC1`, the “% Inhibition” value is recorded as -5% and the Z score is 0.47.

Consider `O=C(N[C@@H]1C[C@@H]2CC(C(=O)O)C[C@@H]21)c1cc2c(o1)CCCC2` (stereo partly specified), for which the “% Inhibition” value is on record as -2% and the Z score was found to be 0.31.

Turning to `O=C(CCCC1CCCCC1)Nc1cccc(C(=O)N2CCC(O)CC2)c1`, the “% Inhibition” value is -5% and the Z score stood at 0.62.

Take `Cc1ccc(CCN(C[C@H]2CCCO2)C(=O)c2cc(C)no2)cc1`: the “% Inhibition” value is recorded as -15% and the Z score was 1.32.

In the case of `CC1(C)CN(C(=O)NC2CC2)C2CCCC21` (stereo unspecified), the “% Inhibition” value was 20% and the Z score was -2.56.

For the molecule `Cc1cc(C)n(CC2(CNC(=O)C[C@@H](c3ccccc3)c3ccccn3)CC2)n1`, the “% Inhibition” value is on record as -4% and the Z score was found to be 0.73.

`Cc1nnc(CN(Cc2cccnc2)Cc2ccco2)o1`: the “% Inhibition” value was -3% and the Z score was 0.42.

In the case of `c1cc(-c2cc([C@H]3CCN(Cc4ccc5c(c4)CCO5)C3)ccn2)ccn1`, the “% Inhibition” value was 0% and the Z score was 0.05.

Regarding `Cn1ccnc1[C@@H]1C[C@H](NC(=O)c2ccccc2)C[C@H](Cc2ccccc2)O1`, the “% Inhibition” value is listed as -12% and the Z score was 1.81.

On to `CCc1noc(CN(C)C2CCCCC2S(C)(=O)=O)n1` (stereo unspecified), for which the “% Inhibition” value was -7% and the Z score is 0.75.

Turning to `O=C(N[C@H]1[C@H](O)[C@H](O)C[C@@H]1c1ccncc1)c1ccccc1`, the “% Inhibition” value is given as -1% and the Z score is listed as 0.18.

Turning to `CN1C(=O)c2ccccc2O[C@H]2CN(C(=O)c3ccccc3F)C[C@H]21`, the “% Inhibition” value is -13% and the Z score is 2.42.

For `COC(=O)c1c(C)[nH]c(-c2ccc3c(c2)OCO3)c1O`, the “% Inhibition” value is recorded as -2% and the Z score came out at 0.22.

`COCCNC(=O)c1nn(CCC(C)C)c2c1CN(C(=O)c1cn3ccccc3n1)CC2`: the “% Inhibition” value is -2% and the Z score is 0.21.

For the molecule `O=C1CN(C2CCCC2)C(=O)N1Cc1ccc(Cl)cc1Cl`, the “% Inhibition” value was -4% and the Z score turned out to be 0.57.

In the case of `CO[C@@H](CS(=O)(=O)Nc1ccc(O)cc1C(N)=O)C1CCCC1`, the “% Inhibition” value was -2% and the Z score is on record as 0.27.

Regarding `O=C(NCc1nccs1)N1CCC[C@@]2(C=Cc3ccccc3O2)C1`, the “% Inhibition” value is recorded as -5% and the Z score amounted to 0.88.

Take `CNC(=O)c1ccc(-n2cnc3cc(C)c(C)cc32)o1`: the “% Inhibition” value was found to be 0% and the Z score came out at 0.

On to `O=C(Nc1ccc2c(c1)C(O)=Nc1cccnc1O2)c1ccccc1`, for which the “% Inhibition” value is on record as -5% and the Z score was 0.91.

Regarding `COc1ccc(-c2nc3cc(C)ccc3cc2CN2CCNC(=O)[C@@H]2C)cc1`, the “% Inhibition” value is listed as -12% and the Z score is given as 1.47.

Turning to `O[C@H]1CCCN(c2ccnc(-c3cccc4ccnn34)n2)C1`, the “% Inhibition” value was 11% and the Z score is given as -1.44.

For the molecule `COc1cccc(Cn2c(Cc3c[nH]c4ccccc34)n[nH]c2=O)c1`, the “% Inhibition” value is -17% and the Z score was found to be 2.7.

On to `CCNC(=O)N1CC=C(C(=O)Nc2cccc(F)c2)CC1`, for which the “% Inhibition” value is listed as -18% and the Z score is listed as 2.72.

On to `O=C1NCCCC[C@@H]1Nc1ncnc2c(Br)cccc12`, for which the “% Inhibition” value is -8% and the Z score worked out at 1.59.

On to `O=C(c1ccc2c(c1)OCCO2)N1CCC(n2cc(CCO)nn2)CC1`, for which the “% Inhibition” value is reported as -13% and the Z score was 2.21.

For `CCn1c(C)nnc1CN1CCn2c(nnc2C(C)(C)C)C1`, the “% Inhibition” value is reported as 5% and the Z score is given as -0.72.

In the case of `CNC(=O)[C@@H](NC(=O)c1cccc(C(F)(F)F)c1)C(C)(C)C`, the “% Inhibition” value turned out to be 4% and the Z score is -0.57.

As to `O=S1(=O)N=C(NCC2(N3CCOCC3)CCCCC2)c2ccccc21`, the “% Inhibition” value is -1% and the Z score was determined as 0.12.

As to `CCS(=O)(=O)C1CN(Cc2ccccc2OC(C)C)C1`, the “% Inhibition” value is 1% and the Z score is -0.22.

Turning to `COc1cc(NC(=O)CCc2ccccc2)nc(OC)n1`, the “% Inhibition” value is listed as -12% and the Z score stood at 1.56.

As to `Cc1nc2c(NC(=O)CN(C)S(C)(=O)=O)cccc2o1`, the “% Inhibition” value is -22% and the Z score worked out at 2.33.

As for `O=S(=O)(Nc1ccccc1)c1cnc2ccccc2c1`, the “% Inhibition” value came to 11% and the Z score is recorded as -1.48.

Consider `CCN(CC)C(=O)[C@@H]1CCCN1Cc1cnc2c(C)cccn12`, for which the “% Inhibition” value is -3% and the Z score worked out at 0.35.
